Source: PubChem BioAssay AID662 (National Center for Advancing Translational Sciences (NCATS), 2007)
The whole screen tested about 71,000 compounds, of which about 1,800 (2.5%) were called active. The shares of active, inactive and inconclusive entries below differ from those in the screen. Calls follow the shape of the dose curve; as a rule, active = well fitted activation curve with a large enough effect in the signal ratio, with a control signal flat (not every such curve was filed as active); inconclusive = small, poorly fitted or top-dose-only effect, or effect the other way, or a change in a side signal; inactive = flat fitted curve, though single readings scatter; the % refers to the signal ratio. Potencies beside an inconclusive call are fits to weak or partial responses and may not hold up.

assay: Cell signaling CRE-BLA (Fsk stim); conditions: CHO CRE-bla reporter (cAMP response element driving beta-lactamase), forskolin EC10, beta-lactamase ratio; activity change, negative = inhibition: at 38.2 µM (top of the series) unless noted; as to activity change, negative = inhibition: % of control where 0% means no effect
Method in brief: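 CRE-bla CHO cells stimulated with EC10 NKH 477 (water-soluble forskolin) and compound titrations, 3 h at 37C; beta-lactamase read with CCF4 after 2 h at room temperature. Activity from 460/530 nm emission ratio, AC50 values for positive or negative modulation.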
Potency is read from the fitted curve at half-maximal effect; tags tell the direction and shape of the fitted curve.

SMILES | activity change, negative = inhibition | Potency
O=C(c1csnn1)N1CCC2(CCCN(c3ccc(-c4ccccc4)cc3)C2)CC1 | inactive: -5.22% | –
CCOc1ccc(-n2cc(C(=O)Nc3cccc(C)n3)c3cc(OC)c(OC)cc3c2=O)cc1 | inconclusive: 29.5% | –
COc1cccc(-c2nc(-c3ccc(NC(=O)c4cccnc4)cc3)no2)c1 | inactive: -10.6% | –
CCN(CC)CCOC(=O)c1cccc(OC)c1 | inactive: 7.3% | –
CC(C)NC[C@@H](O)COc1ccccc1-n1cccc1 | inactive: -16.9% | –
CCOC(=O)c1ccccc1NC(=O)Cn1c(-c2nonc2N)nc2ccccc21 | – | active: 2 µM
Cc1cc(NC(=O)Nc2cccs2)no1 | inconclusive: -31.6% | –
COC(=O)c1[nH]c2cc(C)ccc2c1NC(=O)CN1CCCc2ccccc21 | – | inconclusive: 10 µM [rising, single point]
O=C(Nc1ccc(Nc2ccccc2)cc1)c1ccco1 | inactive: -10.5% | –
COc1ccc(S(=O)(=O)N(Cc2ccc(OC)c(OC)c2)Cc2ccco2)cc1 | inconclusive: 9.21% | –
C/C(N)=C(/C#N)C(=O)COC(=O)c1cc(C)n(-c2ccc(F)cc2)c1C | inconclusive: 27.2% | –
O=C(O)CCc1ccc(-c2ccccc2)n1-c1cccc(O)c1 | inactive: -20.8% | –
COCCOC(=O)c1[nH]c2c(c1C)C(=O)CC(c1cc(OC)ccc1OC)C2 (stereo unspecified) | – | inconclusive: 10 µM [rising, partial curve]
c1cncc(CNc2ncncc2-c2ccc3c(c2)OCO3)c1 | inactive: 1.14% | –
CC1(C)CC(=O)C(C2(O)C(=O)N(Cc3ccccc3)c3ccccc32)CO1 (stereo unspecified) | inactive: -5.17% | –
CCOC(=O)C1CCCN(c2nc3ccccc3nc2C(C#N)C(=O)OCC)C1 (stereo unspecified) | – | inconclusive: 10 µM [rising, partial curve]
COc1cccc(C(c2sc3nc(C)nn3c2O)N2CCN(c3ccccc3F)CC2)c1 (stereo unspecified) | – | inconclusive: 10 µM [rising, partial curve]
CCOc1ncccc1C(=O)OCc1cn2cc(Cl)ccc2n1 | – | active: 10 µM
Cc1nnc(SCC(=O)N2CCc3ccccc32)n1-c1ccccc1 | inconclusive: 1.57% | –
COc1ccc(CNC(=O)C(C#N)c2nc3ccccc3nc2N2CCCC2)cc1 (stereo unspecified) | – | inconclusive: 20 µM [falling, single point]
Cc1cccn2c(=O)c3cc(C(=O)N4COCC4(C)C)n(C)c3nc12 | – | inconclusive: 6.31 µM [rising, partial curve]
CN(C)C(=O)Cn1nc(-c2ccccc2)c2ccccc2c1=O | inconclusive: -3.4% | –

SMILES | activity change, negative = inhibition | Potency
COC(=O)c1cc(OC)c(OC)cc1NC(=O)CC1CCCCC1 | – | inconclusive: 10 µM [rising, single point]
COc1ccc2c(c1)CCc1c(C(=O)NCCc3ccc(OC)c(OC)c3)noc1-2 | inactive: 16.4% | –
Cc1noc(C)c1-c1cc(NC2CC2)ncn1 | inactive: -6.36% | –
Cc1cc(-n2c(C)cc(C(=O)CSc3nnc4sc5ccccc5n34)c2C)no1 | inconclusive: -4.23% | –
COc1cccc(CNC(=O)CCS(=O)(=O)c2cccc3nonc23)c1 | inconclusive: -12.3% | –
CC(=O)NCCNc1ccnc(-c2ccccc2C)n1 | inactive: -6.12% | –
CCCCOC(=O)n1c(=O)oc2cc(S(=O)(=O)N3CCCCC3)ccc21 | inconclusive: 19% | –
CCC(CC)C(=O)Nc1cc(C)cc(C)c1 | inactive: -5.68% | –
O=C(O)c1cnn2c1NC(c1ccc(F)cc1)CC2C(F)(F)F (stereo unspecified) | inconclusive: 12.9% | –
CCO/C(C)=N/n1c2nc3ccccc3nc2c2c(=O)n(C3CCCC3)c(C)nc21 | inactive: 13.3% | –
Cn1c(SCC(=O)c2cc3ccccc3o2)nnc1-c1ccccc1 | inactive: -18% | –
N#CCSc1nc2[nH]ncc2c(=O)n1-c1ccccc1Br | – | inconclusive: 12.6 µM [rising, partial curve]
Cc1cc2ccccc2n1CCNC(=O)COc1ccccc1 | – | active: 10 µM
CCc1ccccc1N(CC)C(=O)c1cn(CC)c(=O)c2cc(OC)c(OC)cc12 | – | inconclusive: 10 µM [rising, single point]
C[C@@H](C(=O)Nc1ccc2ccccc2c1)[C@H]1C[C@]1(C)[C@H](NC(=O)c1ccccc1)c1ccccc1 | inconclusive: 1.41% | –
COc1cccc(Cn2c(-c3nonc3N)nc3ccccc32)c1 | – | inconclusive: 10 µM [rising, partial curve, poor fit]
COc1ccc(N2CCN(C(=O)c3cn(C4CCCC4)c(=O)c4c3c3ccccc3n4C)CC2)cc1 | – | inconclusive: 3.16 µM [rising, single point]
COCCCNC(=O)C1CCN(c2nc(C)cc(C)n2)CC1 | inactive: -0.364% | –
CSCC[C@H](NC(=O)Nc1cccc(C(F)(F)F)c1)C(=O)O | inactive: 2.88% | –
CCCOC(=O)CSc1nc(N)c(C#N)c(CC)c1C#N | – | inconclusive: 3.98 µM [rising, full curve, poor fit]
CCN(CC)c1ccc(-c2nn3c(-c4ccccc4OC)nnc3s2)cc1 | – | inconclusive: 0.398 µM [rising, full curve]
Cc1ccc2c(c1[N+](=O)[O-])C(=O)c1ccccc1C2=O | inactive: 8.68% | –

SMILES | activity change, negative = inhibition | Potency
Nc1nc(NC(=O)c2ccco2)nn1-c1ccccc1 | inactive: 6.01% [at 7.6 µM] | –
NC[C@@H]1O[C@H](C23CC4CC(CC(C4)C2)C3)Cc2c1ccc(O)c2O | inconclusive: 3.06% | –
Cc1cccc2[nH]c3c(=O)n(CCN4CCNCC4)cnc3c12 | inactive: -5.55% | –
O=C(NCc1ccc(F)cc1)C(c1cccs1)N(C(=O)c1csnn1)C1CC1 (stereo unspecified) | inactive: -9.5% | –
COC(=O)n1c(SC)nc2ccccc21 | – | active: 10 µM
O=C(CSc1nc2ccccc2o1)N1CCN(c2ccc(Cl)cc2)CC1 | inconclusive: -28.1% | –
O=C(c1ccncc1)N1CCC2(CC1)CCN(c1ccc(-c3ccccc3)cc1)CC2 | inactive: -5.05% | –
C#CCSc1nsc(SCC#C)c1C#N | inconclusive: 5.86% | –
O=C(CSc1nnc(C2COc3ccccc3O2)o1)N1CCCc2ccccc21 (stereo unspecified) | inconclusive: -4% | –
CC(C)(C)c1ccc(O)c(O)c1 | inconclusive: -20.1% | –
CCC(OC(=O)c1cc2sccc2n1C)C(=O)NCc1ccco1 (stereo unspecified) | inactive: -8.72% | –
CC(C)c1nc2sc3c(NCc4ccco4)ncnc3c2c2c1COC(C)(C)C2 | inconclusive: -12.5% | –
CCCCOc1ccccc1Cn1c(=O)oc2ccc(C)cc21 | inactive: 0.188% | –
COC(=O)C1=C(C)NC2=C(C(=O)CCC2)C1c1coc2ccccc2c1=O (stereo unspecified) | inactive: -1.69% | –
Cn1nc(-c2ccc(OCC(=O)Nc3cccnc3)cc2)c2ccccc2c1=O | – | inconclusive: 25.1 µM [rising, single point]
CCc1ccc(-c2nc(CN3CCC(C(=O)NCc4ccc(F)cc4)CC3)c(C)o2)cc1 | inconclusive: 11.4% | –
CC1CCN(C(=O)Cn2c(SCC(=O)Nc3nccs3)nc3ccccc32)CC1 | inconclusive: 27.3% | –
Nc1nc(-c2ccccc2)cc(-c2ccccc2O)n1 | inconclusive: -27.2% | –
Cc1ccc2nc3c(c(C(=O)O)c2c1)CCC3 | inconclusive: 0.67% | –
COC(=O)C1=C(C)N(C2CCCC2)C(=O)C1(NC(C)=O)C(F)(F)F (stereo unspecified) | inconclusive: -16.3% | –
O=c1c(-c2cc(F)cc(F)c2)nc2cnc(N3CCNCC3)nc2n1-c1ccccc1 | – | inconclusive: 0.398 µM [rising, full curve]
CCc1ccc(CCC(=O)Nc2nnc(C)s2)o1 | inconclusive: -11.2% | –

SMILES | activity change, negative = inhibition | Potency
COc1ccccc1-c1nc(NC2CC2)c2ccccc2n1 | inconclusive: 30% | –
Cc1ccc2c(c1)N(CCC(=O)NCc1ccco1)C(=O)CO2 | inconclusive: -2.96% | –
Cn1c(=O)[nH]c(=O)c2[nH]c(N(Cc3ccccc3)Cc3ccccc3)nc21 | – | inconclusive: 3.16 µM [rising, partial curve]
CN1CCN(c2ccncc2S(=O)(=O)N2CCN(C)CC2)CC1 | inactive: 12.3% [at 7.6 µM] | –
CCN(CC)CCCn1c(-c2ccccc2)nc2c(N(CCOC)CCOC)nc(C)nc21 | inactive: 4.52% | –
Clc1ccc2oc(-c3ccccn3)nc2c1 | – | inconclusive: 10 µM [rising, single point]
CCOCCCNC(=O)c1ccccc1Br | inconclusive: -19.6% | –
CCOC(=O)N1CCC(NC(=O)C2CCN(c3ccc(N4CCOCC4)nn3)CC2)CC1 | – | inconclusive: 3.98 µM [rising, single point]
CC(C)c1nc2oc3c(NCc4cccnc4)ncnc3c2c2c1CCC2 | – | inconclusive: 3.16 µM [rising, partial curve]
Nc1nc(-c2ccccc2)cc(C(F)(F)F)n1 | – | inconclusive: 5.01 µM [rising, partial curve]
Oc1ccccc1CN1CCCN(Cc2ccccc2O)C1 | inconclusive: -0.122% | –
COc1ccc(Nc2ncc3nc(-c4cccs4)c(=O)n(Cc4cccc(OC)c4)c3n2)cc1 | inactive: -16.8% | –
COC(=O)c1ccc(C(=O)OC)c(NC(=O)COC(=O)C23CC4CC(CC(O)(C4)C2)C3)c1 | – | inconclusive: 10 µM [rising, single point]
C/C(Cl)=C\Cn1c(NCCCn2ccnc2)nc2c1c(=O)n(C)c(=O)n2C | inconclusive: 50.7% | –
COCCNC(=O)NC1(C(F)(F)F)Oc2ccc(Cl)cc2O1 (stereo unspecified) | inconclusive: -23.8% | –
Cc1cc(S(=O)(=O)N(Cc2ccccc2)Cc2ccc(N(C)C)cc2)ccc1-n1cnnn1 | inconclusive: 8.14% | –
Cc1nnc(SCc2ccc(C(=O)c3ccc(Cl)cc3)o2)n1-c1ccccc1 | – | inconclusive: 12.6 µM [rising, single point]
CC(=O)Nc1cccc(NC(=O)C2CCCN2C(=O)Nc2cccc(C)c2)c1 (stereo unspecified) | inactive: -8.65% | –
C[C@@](Cc1ccc(O)c(O)c1)(NN)C(=O)O | inconclusive: -9.29% | –
Cc1ccc(C)c(NC(=O)c2ccccc2O)c1 | inactive: 11.8% | –
